# The supplement of paper PMC8728848
# This is one part of the list.
# B1: SSP1 (Sclerotinia sclerotiorum), XP_001584968 (protein)
# chain: MGSSHHHHHHSSGLVPRGSHMSLLTTELACTSAPDQVLHLFFQDGQNILEARSPDGGNVWTTQDTIIAKDGDYNGSSMTCYYVDKDANFDNQPSIHLLYMNKDKQLTEKVKRMKGDNPIWEDAKVPDEVRKGPEQYSKLTSGSFNQGTGWNPNGSQWAYFSASKDGKMGIVEIRRTPKDPWHTETILEEKWGDELPGTALACVIGNGKIRVFLQHHDYSIILYENQNNTWHDRGTFIPKDKVQATTPLACTMTKDGSVHLFYVSKSNKIIHCTDGKKEEELINFFPGSKLGATSVENKITLFFRNLNPVNEVGTLENENGSWKHGTTVIPA
# Key:
# Assay in all cases: glycan array binding signal (z-score within array); higher = stronger binding
# Settings in all cases: glycan notation: IUPAC condensed, linker removed
# [1] = biological target: Fuc(a1-2)Gal
# Outline: (§1)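 The binding signal is a Z-score computed within each array. Data were drawn from 3228 arrays in the Consortium for Functional Glycomics database, restricted to those with a known protein sequence. Scores were averaged over arrays of the same protein sequence at different concentrations or buffers, and over linkers, and negative values can be taken as non-binding.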
# [2] = biological target: Fuc(a1-2)Gal(b1-3)GalNAc
# Outline: as §1
# [3] = biological target: Fuc(a1-2)Gal(b1-3)GalNAc(a1-3)[Fuc(a1-2)]Gal(b1-4)Glc
# Outline: as §1
# [4] = biological target: Fuc(a1-2)Gal(b1-3)GalNAc(a1-3)[Fuc(a1-2)]Gal(b1-4)GlcNAc
# Outline: as §1
# [5] = biological target: Fuc(a1-2)Gal(b1-3)GalNAc(b1-3)Gal
# Outline: as §1
# [6] = biological target: Fuc(a1-2)Gal(b1-3)GalNAc(b1-3)Gal(a1-4)Gal(b1-4)Glc
# Outline: as §1
# [7] = biological target: Fuc(a1-2)Gal(b1-3)GalNAc(b1-4)[Neu5Ac(a2-3)]Gal(b1-4)Glc
# Outline: as §1
# [8] = biological target: Fuc(a1-2)Gal(b1-3)GlcNAc
# Outline: as §1
# [9] = biological target: Fuc(a1-2)Gal(b1-3)GlcNAc(b1-2)Man(a1-3)[Fuc(a1-2)Gal(b1-3)GlcNAc(b1-2)Man(a1-6)]Man(b1-4)GlcNAc(b1-4)GlcNAc
# Outline: as §1
# [10] = biological target: Fuc(a1-2)Gal(b1-3)GlcNAc(b1-2)Man(a1-3)[Fuc(a1-2)Gal(b1-3)GlcNAc(b1-2)Man(a1-6)]Man(b1-4)GlcNAc(b1-4)[Fuc(a1-6)]GlcNAc
# Outline: as §1
# [11] = biological target: Fuc(a1-2)Gal(b1-3)GlcNAc(b1-3)Gal(b1-4)Glc
# Outline: as §1
# [12] = biological target: Fuc(a1-2)Gal(b1-3)GlcNAc(b1-3)GalNAc
# Outline: as §1
# [13] = biological target: Fuc(a1-2)Gal(b1-3)GlcNAc(b1-3)[Fuc(a1-2)Gal(b1-3)GlcNAc(b1-6)]GalNAc
# Outline: as §1
# [14] = biological target: Fuc(a1-2)Gal(b1-3)GlcNAc(b1-3)[Gal(b1-4)GlcNAc(b1-6)]Gal(b1-4)Glc
# Outline: as §1
# [15] = biological target: Fuc(a1-2)Gal(b1-3)GlcNAc(b1-3)[Neu5Ac(a2-6)Gal(b1-4)GlcNAc(b1-6)]Gal(b1-4)Glc
# Outline: as §1
# [16] = biological target: Fuc(a1-2)Gal(b1-3)GlcNAc6S
# Outline: as §1
# [17] = biological target: Fuc(a1-2)Gal(b1-3)[Fuc(a1-4)]GlcNAc
# Outline: as §1
# [18] = biological target: Fuc(a1-2)Gal(b1-3)[Fuc(a1-4)]GlcNAc(b1-2)Man(a1-3)[Fuc(a1-2)Gal(b1-3)[Fuc(a1-4)]GlcNAc(b1-2)Man(a1-3)]Man(b1-4)GlcNAc(b1-4)GlcNAc
# Outline: as §1
# [19] = biological target: Fuc(a1-2)Gal(b1-3)[Fuc(a1-4)]GlcNAc(b1-2)Man(a1-3)[Fuc(a1-2)Gal(b1-3)[Fuc(a1-4)]GlcNAc(b1-2)Man(a1-6)]Man(b1-4)GlcNAc(b1-4)[Fuc(a1-6)]GlcNAc(b1-4)[Fuc(a1-6)]GlcNAc
# Outline: as §1
# [20] = biological target: Fuc(a1-2)Gal(b1-3)[Fuc(a1-4)]GlcNAc(b1-3)[Fuc(a1-3)[Gal(b1-4)]GlcNAc(b1-6)]Gal(b1-4)Glc
# Outline: as §1
# [21] = biological target: Fuc(a1-2)Gal(b1-3)[Fuc(a1-4)]GlcNAc(b1-3)[Gal(b1-4)GlcNAc(b1-6)]Gal(b1-4)Glc
# Outline: as §1
# [22] = biological target: Fuc(a1-2)Gal(b1-4)Fuc(a1-3)]GlcNAc(b1-2)Man(a1-3)[Fuc(a1-2)Gal(b1-4)[Fuc(a1-3)]GlcNAc(b1-2)Man(a1-6)]Man(b1-4)GlcNAc(b1-4)GlcNAc
# Outline: as §1
# [23] = biological target: Fuc(a1-2)Gal(b1-4)Glc
# Outline: as §1
# [24] = biological target: Fuc(a1-2)Gal(b1-4)Glc6S
# Outline: as §1
# [25] = biological target: Fuc(a1-2)Gal(b1-4)GlcNAc
# Outline: as §1
# [26] = biological target: Fuc(a1-2)Gal(b1-4)GlcNAc(b1-2)Man
# Outline: as §1
# [27] = biological target: Fuc(a1-2)Gal(b1-4)GlcNAc(b1-2)Man(a1-3)[Fuc(a1-2)Gal(b1-4)GlcNAc(b1-2)Man(a1-6)]Man(b1-4)GlcNAc(b1-4)GlcNAc
# Outline: as §1
# [28] = biological target: Fuc(a1-2)Gal(b1-4)GlcNAc(b1-2)Man(a1-3)[Fuc(a1-2)Gal(b1-4)GlcNAc(b1-2)Man(a1-6)]Man(b1-4)GlcNAc(b1-4)[Fuc(a1-6)]GlcNAc
# Outline: as §1
# [29] = biological target: Fuc(a1-2)Gal(b1-4)GlcNAc(b1-2)[Fuc(a1-2)Gal(b1-4)GlcNAc(b1-4)]Man(a1-3)[Fuc(a1-2)Gal(b1-4)GlcNAc(b1-2)Man(a1-6)]Man(b1-4)GlcNAc(b1-4)GlcNAc
# Outline: as §1
# [30] = biological target: Fuc(a1-2)Gal(b1-4)GlcNAc(b1-3)Gal(b1-4)GlcNAc
# Outline: as §1
# [31] = biological target: Fuc(a1-2)Gal(b1-4)GlcNAc(b1-3)Gal(b1-4)GlcNAc(b1-2)Man(a1-3)[Fuc(a1-2)Gal(b1-4)GlcNAc(b1-3)Gal(b1-4)GlcNAc(b1-2)Man(a1-6)]Man(b1-4)GlcNAc(b1-4)GlcNAc
# Outline: as §1
# [32] = biological target: Fuc(a1-2)Gal(b1-4)GlcNAc(b1-3)Gal(b1-4)GlcNAc(b1-3)Gal(b1-4)GlcNAc
# Outline: as §1
# [33] = biological target: Fuc(a1-2)Gal(b1-4)GlcNAc(b1-3)GalNAc
# Outline: as §1
# [34] = biological target: Fuc(a1-2)Gal(b1-4)GlcNAc(b1-3)[Fuc(a1-2)Gal(b1-4)GlcNAc(b1-6)]GalNAc
# Outline: as §1
# [35] = biological target: Fuc(a1-2)Gal(b1-4)GlcNAc(b1-3)[Fuc(a1-3)[Gal(b1-4)]GlcNAc(b1-6)]Gal(b1-4)Glc
# Outline: as §1
# [36] = biological target: Fuc(a1-2)Gal(b1-4)GlcNAc(b1-6)GalNAc
# Outline: as §1
# [37] = biological target: Fuc(a1-2)Gal(b1-4)GlcNAc6S
# Outline: as §1
# [38] = biological target: Fuc(a1-2)Gal(b1-4)[Fuc(a1-3)]GlcNAc
# Outline: as §1
# [39] = biological target: Fuc(a1-2)Gal(b1-4)[Fuc(a1-3)]GlcNAc(b1-2)Man(a1-3)[Fuc(a1-2)Gal(b1-4)[Fuc(a1-3)]GlcNAc(b1-2)Man(a1-6)]Man(b1-4)GlcNAc(b1-4)[Fuc(a1-6)]GlcNAc
# Outline: as §1
# [40] = biological target: Fuc(a1-2)Gal(b1-4)[Fuc(a1-3)]GlcNAc(b1-2)[Fuc(a1-2)Gal(b1-4)[Fuc(a1-3)]GlcNAc(b1-4)]Man(a1-3)[Fuc(a1-2)Gal(b1-4)[Fuc(a1-3)]GlcNAc(b1-2)Man(a1-6)]Man(b1-4)GlcNAc(b1-4)GlcNAc
# Outline: as §1
# [41] = biological target: Fuc(a1-2)Gal(b1-4)[Fuc(a1-3)]GlcNAc(b1-3)Gal(b1-4)[Fuc(a1-3)]GlcNAc
# Outline: as §1
# [42] = biological target: Fuc(a1-2)Gal(b1-4)[Fuc(a1-3)]GlcNAc(b1-3)Gal(b1-4)[Fuc(a1-3)]GlcNAc(b1-3)Gal(b1-4)[Fuc(a1-3)]GlcNAc
# Outline: as §1
# [43] = biological target: Fuc(a1-2)Gal(b1-4)[Fuc(a1-3)]GlcNAc(b1-3)GalNAc
# Outline: as §1
# [44] = biological target: Fuc(a1-2)Gal(b1-4)[Fuc(a1-3)]GlcNAc(b1-3)[Neu5Ac(a2-6)Gal(b1-4)GlcNAc(b1-6)]Gal(b1-4)Glc
# Outline: as §1
# [45] = biological target: Fuc(a1-2)Gal3S(b1-4)GlcNAc
# Outline: as §1
binder,measurement,setting,value
B1,glycan array binding signal (z-score),[1],-0.634
same,glycan array binding signal (z-score),[2],0
same,glycan array binding signal (z-score),[3],-0.231
same,glycan array binding signal (z-score),[4],-0.034
same,glycan array binding signal (z-score),[5],1.22
same,glycan array binding signal (z-score),[6],-0.063
same,glycan array binding signal (z-score),[7],-0.22
same,glycan array binding signal (z-score),[8],-0.026
same,glycan array binding signal (z-score),[9],1.11
same,glycan array binding signal (z-score),[10],-0.147
same,glycan array binding signal (z-score),[11],-0.126
same,glycan array binding signal (z-score),[12],-0.072
same,glycan array binding signal (z-score),[13],0.083
same,glycan array binding signal (z-score),[14],-0.099
same,glycan array binding signal (z-score),[15],0.347
same,glycan array binding signal (z-score),[16],0.646
same,glycan array binding signal (z-score),[17],-0.279
same,glycan array binding signal (z-score),[18],0.937
same,glycan array binding signal (z-score),[19],-0.423
same,glycan array binding signal (z-score),[20],-0.184
same,glycan array binding signal (z-score),[21],-0.405
same,glycan array binding signal (z-score),[22],0.411
same,glycan array binding signal (z-score),[23],0.672
same,glycan array binding signal (z-score),[24],-0.344
same,glycan array binding signal (z-score),[25],-0.221
same,glycan array binding signal (z-score),[26],-0.573
same,glycan array binding signal (z-score),[27],-0.04
same,glycan array binding signal (z-score),[28],0.31
same,glycan array binding signal (z-score),[29],0.056
same,glycan array binding signal (z-score),[30],-0.903
same,glycan array binding signal (z-score),[31],0.094
same,glycan array binding signal (z-score),[32],0.283
same,glycan array binding signal (z-score),[33],-0.123
same,glycan array binding signal (z-score),[34],-0.366
same,glycan array binding signal (z-score),[35],-0.146
same,glycan array binding signal (z-score),[36],0.061
same,glycan array binding signal (z-score),[37],-0.116
same,glycan array binding signal (z-score),[38],-0.385
same,glycan array binding signal (z-score),[39],-0.054
same,glycan array binding signal (z-score),[40],0.008
same,glycan array binding signal (z-score),[41],-0.305
same,glycan array binding signal (z-score),[42],0.321
same,glycan array binding signal (z-score),[43],-0.39
same,glycan array binding signal (z-score),[44],-0.218
same,glycan array binding signal (z-score),[45],-0.468
